In patent US20200397865A1 (ACCELERON PHARMA, published 2020):

T1: BMP10 (UniProt O95393 317-424)
T1 sequence (looked up): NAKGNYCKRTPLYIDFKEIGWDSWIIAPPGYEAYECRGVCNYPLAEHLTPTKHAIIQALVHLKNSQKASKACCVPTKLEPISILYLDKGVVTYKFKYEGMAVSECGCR

T2: GDF8 (UniProt O14793 267-375)
T2 construct: also called myostatin
T2 sequence (looked up): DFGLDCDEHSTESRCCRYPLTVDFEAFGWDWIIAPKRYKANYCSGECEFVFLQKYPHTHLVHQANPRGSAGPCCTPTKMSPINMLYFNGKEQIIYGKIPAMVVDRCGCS

T3: activin B (UniProt P09529 293-407)
T3 sequence (looked up): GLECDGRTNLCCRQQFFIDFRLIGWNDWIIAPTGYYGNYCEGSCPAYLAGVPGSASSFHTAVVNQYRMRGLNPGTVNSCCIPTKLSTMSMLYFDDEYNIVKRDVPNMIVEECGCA

B1: ActRIIB(L79D 25-131)-hFc (Fc fusion)
chain: ETRECIYYNANWELERTNQSGLERCEGEQDKRLHCYASWRNSSGTIELVKKGCWDDDFNCYDRQECVATEENPQVYFCCCEGNFCNERFTHLPEAGGPEVTYEPPPTG[human IgG1 Fc and a few adjoining residues not written out]
notes: also called truncated GDF trap; GDF trap with truncated ActRIIB extracellular domain
B2: ActRIIA-hFc (Fc fusion)
chain: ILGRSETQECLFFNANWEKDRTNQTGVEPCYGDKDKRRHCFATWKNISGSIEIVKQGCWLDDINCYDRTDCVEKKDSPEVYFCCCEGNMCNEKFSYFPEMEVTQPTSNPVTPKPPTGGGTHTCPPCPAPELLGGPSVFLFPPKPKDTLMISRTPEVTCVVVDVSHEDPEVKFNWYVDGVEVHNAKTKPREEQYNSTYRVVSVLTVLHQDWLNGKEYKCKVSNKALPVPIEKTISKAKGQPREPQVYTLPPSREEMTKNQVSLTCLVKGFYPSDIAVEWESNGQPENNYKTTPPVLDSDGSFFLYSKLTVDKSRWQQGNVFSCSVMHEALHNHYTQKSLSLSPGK
notes: also called ActRIIA-hFc fusion protein; ActRIIa-Fc

Tests used:
BMP10 [1] = target: T1, BMP10; test: SPR (Biacore)
GDF8 [2] = target: T2, GDF8; test: SPR (Biacore)
activin B = target: T3, activin B; test: similar Biacore binding assay
Description: (§1) GDF11 or activin A were immobilized on a Biacore™ CM5 chip using standard amine-coupling procedure. ActRIIA-hFc and ActRIIA-mFc proteins were loaded onto the system, and binding was measured. […] Using a similar binding assay, ActRIIA-hFc was determined to have high to moderate affinity for other TGF-beta superfamily ligands including, for example, activin B, GDF8, BMP6, and BMP10. ActRIIA-mFc behaved similarly.

BMP10 [3] = target: T1, BMP10; test: similar Biacore binding assay
Description: as §1

GDF8 [4] = target: T2, GDF8; test: similar Biacore binding assay
Description: as §1

| binding result (BMP10 [1]) | binding result (GDF8 [2]) | binding result (activin B) | binding result (BMP10 [3]) | binding result (GDF8 [4]) | Binder |
| --- | --- | --- | --- | --- | --- |
| binds | binds | – | – | – | B1 |
| – | – | binds | binds | binds | B2 |
